Several values for one entry are separate records, joined by “and”; a condition that tells them apart may be missing. Equal values may be shown once. This continues a long series; more values of the same kind are listed elsewhere.
Assay: xn = mol fraction of the nth substance listed

CCCO + O
Details	viscosity
293.15 K, 101 kPa, x1 = 0.9	2.3 mPa·s
293.15 K, 101.3 kPa, x1 = 0.0908	2.48 mPa·s
293.15 K, 101.3 kPa, x1 = 0.2306	3.17 mPa·s
293.15 K, 101.3 kPa, x1 = 0.4735	2.94 mPa·s
293.15 K, 101.3 kPa, x1 = 0.7296	2.52 mPa·s
293.15 K, 101.33 kPa, x1 = 0.0322	1.597 mPa·s
293.15 K, 101.33 kPa, x1 = 0.114	2.748 mPa·s
293.15 K, 101.33 kPa, x1 = 0.231	3.278 mPa·s
293.15 K, 101.33 kPa, x1 = 0.25	3.31 mPa·s
293.15 K, 101.33 kPa, x1 = 0.268	3.31 mPa·s
293.15 K, 101.33 kPa, x1 = 0.412	3.193 mPa·s
297.96 K, 101.33 kPa, x1 = 0.0555	1.69 mPa·s
297.96 K, 101.33 kPa, x1 = 0.1383	2.275 mPa·s
297.96 K, 101.33 kPa, x1 = 0.1644	2.479 mPa·s
297.96 K, 101.33 kPa, x1 = 0.1938	2.503 mPa·s
297.96 K, 101.33 kPa, x1 = 0.3109	2.681 mPa·s
297.96 K, 101.33 kPa, x1 = 0.5696	2.395 mPa·s
297.96 K, 101.33 kPa, x1 = 0.7354	2.192 mPa·s
298 K, 101 kPa, x1 = 0.03	1.335 mPa·s
298 K, 101 kPa, x1 = 0.1	2.227 mPa·s
298 K, 101 kPa, x1 = 0.2	2.47 mPa·s
298 K, 101 kPa, x1 = 0.4	2.586 mPa·s
298.15 K, 100 kPa, x1 = 0.025	1.255 mPa·s
298.15 K, 100 kPa, x1 = 0.0917	2.038 mPa·s
298.15 K, 100 kPa, x1 = 0.191	2.56 mPa·s
298.15 K, 100 kPa, x1 = 0.2014	2.591 mPa·s
298.15 K, 100 kPa, x1 = 0.5	2.509 mPa·s
298.15 K, 100 kPa, x1 = 0.545	2.448 mPa·s
298.15 K, 100 kPa, x1 = 0.629	2.273 mPa·s
298.15 K, 100 kPa, x1 = 0.73	2.152 mPa·s
298.15 K, 100 kPa, x1 = 0.75	2.157 mPa·s
298.15 K, 101 kPa, x1 = 0.0051	0.957 mPa·s
298.15 K, 101 kPa, x1 = 0.0116	1.03 mPa·s
298.15 K, 101 kPa, x1 = 0.0149	1.079 mPa·s
298.15 K, 101 kPa, x1 = 0.0214	1.173 mPa·s
298.15 K, 101 kPa, x1 = 0.02492	1.239 mPa·s
298.15 K, 101 kPa, x1 = 0.0386	1.435 mPa·s
298.15 K, 101 kPa, x1 = 0.0523	1.734 mPa·s
298.15 K, 101 kPa, x1 = 0.0997	2.095 mPa·s
298.15 K, 101 kPa, x1 = 0.1342	2.303 mPa·s
298.15 K, 101 kPa, x1 = 0.1986	2.562 mPa·s
298.15 K, 101 kPa, x1 = 0.3006	2.705 mPa·s
298.15 K, 101 kPa, x1 = 0.3811	2.627 mPa·s
298.15 K, 101 kPa, x1 = 0.4003	2.619 mPa·s
298.15 K, 101 kPa, x1 = 0.4782	2.498 mPa·s
298.15 K, 101 kPa, x1 = 0.5394	2.407 mPa·s
298.15 K, 101 kPa, x1 = 0.6217	2.306 mPa·s
298.15 K, 101 kPa, x1 = 0.6856	2.241 mPa·s
298.15 K, 101 kPa, x1 = 0.8994	2.036 mPa·s
298.15 K, 101 kPa, x1 = 0.9621	1.986 mPa·s
298.15 K, 101.33 kPa, x1 = 0.0273	1.289 mPa·s
298.15 K, 101.33 kPa, x1 = 0.0298	1.312 mPa·s
298.15 K, 101.33 kPa, x1 = 0.03223	1.347 mPa·s
298.15 K, 101.33 kPa, x1 = 0.06972	1.836 mPa·s
298.15 K, 101.33 kPa, x1 = 0.08053	1.982 mPa·s
298.15 K, 101.33 kPa, x1 = 0.09045	2.047 mPa·s
298.15 K, 101.33 kPa, x1 = 0.09346	2.11 mPa·s
298.15 K, 101.33 kPa, x1 = 0.1058	2.188 mPa·s
298.15 K, 101.33 kPa, x1 = 0.1139	2.226 mPa·s
298.15 K, 101.33 kPa, x1 = 0.1398	2.456 mPa·s
298.15 K, 101.33 kPa, x1 = 0.1666	2.497 mPa·s
298.15 K, 101.33 kPa, x1 = 0.1869	2.616 mPa·s
298.15 K, 101.33 kPa, x1 = 0.2306	2.65 mPa·s
298.15 K, 101.33 kPa, x1 = 0.2571	2.707 mPa·s
298.15 K, 101.33 kPa, x1 = 0.357	2.703 mPa·s
298.15 K, 101.33 kPa, x1 = 0.4047	2.62 mPa·s
298.15 K, 101.33 kPa, x1 = 0.4116	2.592 mPa·s
298.15 K, 101.33 kPa, x1 = 0.5365	2.45 mPa·s
298.15 K, 101.33 kPa, x1 = 0.5453	2.394 mPa·s
298.15 K, 101.33 kPa, x1 = 0.6095	2.364 mPa·s
298.15 K, 101.33 kPa, x1 = 0.6596	2.311 mPa·s
298.15 K, 101.33 kPa, x1 = 0.7296	2.162 mPa·s
298.15 K, 101.33 kPa, x1 = 0.8507	2.043 mPa·s
302.99 K, 101.33 kPa, x1 = 0.0555	1.435 mPa·s
302.99 K, 101.33 kPa, x1 = 0.1134	1.889 mPa·s
302.99 K, 101.33 kPa, x1 = 0.1383	2.009 mPa·s
302.99 K, 101.33 kPa, x1 = 0.1644	2.116 mPa·s
302.99 K, 101.33 kPa, x1 = 0.2288	2.25 mPa·s
302.99 K, 101.33 kPa, x1 = 0.3109	2.286 mPa·s
302.99 K, 101.33 kPa, x1 = 0.4189	2.222 mPa·s
302.99 K, 101.33 kPa, x1 = 0.5696	2.072 mPa·s
302.99 K, 101.33 kPa, x1 = 0.7354	1.924 mPa·s
303.15 K, 101 kPa, x1 = 0.0738	1.534 mPa·s
303.15 K, 101 kPa, x1 = 0.1	1.791 mPa·s
303.15 K, 101 kPa, x1 = 0.2	2.2 mPa·s
303.15 K, 101 kPa, x1 = 0.3	2.283 mPa·s
303.15 K, 101 kPa, x1 = 0.3067	2.277 mPa·s
303.15 K, 101 kPa, x1 = 0.4143	2.213 mPa·s
303.15 K, 101 kPa, x1 = 0.5	2.134 mPa·s
303.15 K, 101 kPa, x1 = 0.5764	1.969 mPa·s
303.15 K, 101 kPa, x1 = 0.6	2.038 mPa·s
303.15 K, 101 kPa, x1 = 0.6817	1.951 mPa·s
303.15 K, 101 kPa, x1 = 0.7	1.939 mPa·s
303.15 K, 101 kPa, x1 = 0.8	1.862 mPa·s
303.15 K, 101 kPa, x1 = 0.9	1.783 mPa·s and 1.796 mPa·s
303.15 K, 101.3 kPa, x1 = 0.0908	1.73 mPa·s
303.15 K, 101.3 kPa, x1 = 0.2306	2.25 mPa·s
303.15 K, 101.3 kPa, x1 = 0.4735	2.15 mPa·s
303.15 K, 101.3 kPa, x1 = 0.7296	1.92 mPa·s
303.15 K, 101.33 kPa, x1 = 0.0322	1.217 mPa·s
303.15 K, 101.33 kPa, x1 = 0.06972	1.546 mPa·s
303.15 K, 101.33 kPa, x1 = 0.1139	1.868 mPa·s
303.15 K, 101.33 kPa, x1 = 0.114	1.939 mPa·s
303.15 K, 101.33 kPa, x1 = 0.1666	2.101 mPa·s
303.15 K, 101.33 kPa, x1 = 0.2306	2.237 mPa·s
303.15 K, 101.33 kPa, x1 = 0.231	2.334 mPa·s
303.15 K, 101.33 kPa, x1 = 0.4116	2.216 mPa·s
303.15 K, 101.33 kPa, x1 = 0.412	2.329 mPa·s
303.15 K, 101.33 kPa, x1 = 0.5453	2.071 mPa·s
303.15 K, 101.33 kPa, x1 = 0.7296	1.891 mPa·s
303.15 K, 101.33 kPa, x1 = 0.8507	1.805 mPa·s
307.92 K, 101.33 kPa, x1 = 0.0555	1.242 mPa·s
307.92 K, 101.33 kPa, x1 = 0.1134	1.621 mPa·s
307.92 K, 101.33 kPa, x1 = 0.1383	1.728 mPa·s
307.92 K, 101.33 kPa, x1 = 0.1644	1.815 mPa·s
307.92 K, 101.33 kPa, x1 = 0.3109	1.972 mPa·s
307.92 K, 101.33 kPa, x1 = 0.5696	1.807 mPa·s
307.92 K, 101.33 kPa, x1 = 0.7354	1.691 mPa·s
308.15 K, 100 kPa, x1 = 0.025	0.97 mPa·s
308.15 K, 100 kPa, x1 = 0.0917	1.461 mPa·s
308.15 K, 100 kPa, x1 = 0.191	1.85 mPa·s
308.15 K, 100 kPa, x1 = 0.545	1.78 mPa·s

Reference: the CheMixHub viscosity set
